Each block holds one binder with its values, some of them ahead of it.
Legend:
[1] = biological target: human TrkB receptor (human, UniProt Q16620 32-822); test: cell-based or functional assay
[2] = biological target: rat TrkB receptor (rat, UniProt Q63604 32-821); test: cell-based or functional assay
Chain of UniProt Q63604 (Q63604 32-821): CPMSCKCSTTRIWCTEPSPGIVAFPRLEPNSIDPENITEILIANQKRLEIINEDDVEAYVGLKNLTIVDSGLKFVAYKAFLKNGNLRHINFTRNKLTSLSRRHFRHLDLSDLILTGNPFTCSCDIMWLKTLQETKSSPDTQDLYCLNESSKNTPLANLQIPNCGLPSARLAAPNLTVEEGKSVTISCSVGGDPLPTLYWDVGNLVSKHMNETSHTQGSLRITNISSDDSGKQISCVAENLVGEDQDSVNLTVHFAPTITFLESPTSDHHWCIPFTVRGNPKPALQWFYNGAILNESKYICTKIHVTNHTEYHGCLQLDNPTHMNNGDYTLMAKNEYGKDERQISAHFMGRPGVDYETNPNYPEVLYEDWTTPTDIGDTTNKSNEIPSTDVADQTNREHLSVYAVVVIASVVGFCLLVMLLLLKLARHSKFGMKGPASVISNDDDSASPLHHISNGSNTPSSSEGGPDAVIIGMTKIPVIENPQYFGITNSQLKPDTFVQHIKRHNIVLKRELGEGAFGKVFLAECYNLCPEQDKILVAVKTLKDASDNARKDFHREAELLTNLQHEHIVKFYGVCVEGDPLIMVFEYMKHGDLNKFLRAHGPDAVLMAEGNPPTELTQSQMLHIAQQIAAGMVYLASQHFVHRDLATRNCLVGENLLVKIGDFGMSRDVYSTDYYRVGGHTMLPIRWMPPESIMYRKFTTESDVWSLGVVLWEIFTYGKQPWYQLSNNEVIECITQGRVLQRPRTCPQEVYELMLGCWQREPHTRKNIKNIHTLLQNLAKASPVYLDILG

Chain of UniProt Q16620 (Q16620 32-822): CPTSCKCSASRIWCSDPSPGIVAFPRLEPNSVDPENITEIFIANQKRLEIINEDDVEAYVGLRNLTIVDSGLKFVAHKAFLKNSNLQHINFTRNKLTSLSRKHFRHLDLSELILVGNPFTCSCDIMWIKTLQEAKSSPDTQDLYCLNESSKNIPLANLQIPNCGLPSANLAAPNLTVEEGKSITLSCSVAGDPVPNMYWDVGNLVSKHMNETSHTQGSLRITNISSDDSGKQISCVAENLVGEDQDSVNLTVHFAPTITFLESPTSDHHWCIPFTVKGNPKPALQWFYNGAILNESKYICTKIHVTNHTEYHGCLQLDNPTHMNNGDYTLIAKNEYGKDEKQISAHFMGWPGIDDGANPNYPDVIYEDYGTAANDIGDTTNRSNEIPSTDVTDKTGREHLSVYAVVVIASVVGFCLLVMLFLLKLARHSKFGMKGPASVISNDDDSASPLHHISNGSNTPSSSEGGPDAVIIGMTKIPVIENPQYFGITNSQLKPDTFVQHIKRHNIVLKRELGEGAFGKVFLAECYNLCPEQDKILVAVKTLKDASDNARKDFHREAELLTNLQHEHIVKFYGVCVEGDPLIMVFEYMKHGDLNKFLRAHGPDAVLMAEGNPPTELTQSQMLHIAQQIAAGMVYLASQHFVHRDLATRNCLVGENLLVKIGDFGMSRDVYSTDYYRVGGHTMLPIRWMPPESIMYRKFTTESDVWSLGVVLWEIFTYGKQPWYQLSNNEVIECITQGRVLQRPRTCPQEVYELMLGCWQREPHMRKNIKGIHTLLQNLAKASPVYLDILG

TrkB-phosphorylation efficacy (AlphaLISA counts) [1]: 6640 AlphaLISA counts | TrkB-phosphorylation efficacy relative to parental clone without CC bridge (%) [1]: 100% | TrkB-phosphorylation potency (EC50, nM) [1]: 8.09 nM | TrkB-phosphorylation efficacy (AlphaLISA counts) [2]: 19700 AlphaLISA counts | TrkB-phosphorylation efficacy relative to parental clone without CC bridge (%) [2]: 100% | TrkB-phosphorylation potency (EC50, nM) [2]: 4.21 nM
B1: TPP-22180 (bispecific antibody, human IgG1, kappa)
light: DIQLTQSPSSLSASVGDRVTITCSASQDISNYLNWYQQKPGKAPKVLIYFTSSLHSGVPSRFSGSGSGTGFTLTISSLQPEDFATYYCQQYSTVPWTFGQGTKVEIKRTVAAPSVFIFPPSDEQLKSGTASVVCLLNNFYPREAKVQWKVDNALQSGNSQESVTEQDSKDSTYSLSSTLTLSKADYEKHKVYACEVTHQGLSSPVTKSFNRGEC
heavy: QVQLVQSGGGLVQPGGSLRLSCAASGYDFTHYGMNWVRQAPGKGLEWVGWINTYTGEPTYAADFKRRFTFSLDTSKSTAYLQMNSLRAEDTAVYYCAKYPYYYGTSHWYFDVWGQGTLVTVSSASTKGPSVFPLAPSSKSTSGGTAALGCLVKDYFPEPVTVSWNSGALTSGVHTFPAVLQSSGLYSLSSVVTVPSSSLGTQTYICNVNHKPSNTKVDKRV[in this place human IgG1 Fc with changes]GGGGSGGGGSQVQLVQSGAEVKKPGASVKVSCKASGYTFTNYDIIWVRQAPGQGLEWMGYINPYNDGTKYNEKFKGRVTMTRDTSTSTVYMELSSLRSEDTAVYYCARLLKYRRFRYYAIDYWGQGTTVTVSSGGSEGKSSGSGSESKSTGGSDIQMTQSPSSLSASVGDRVTITCRTSENVYSNLAWYQQKPGKAPKLLIYAASNLQSGVPSRFSGSGSGTDYTFTISSLQPEDIATYYCQHFWGSPFTFGQGTKLEIK

TrkB-phosphorylation efficacy (AlphaLISA counts) [1]: 5790 AlphaLISA counts | TrkB-phosphorylation efficacy relative to parental clone without CC bridge (%) [1]: 119% | TrkB-phosphorylation potency (EC50, nM) [1]: 1.12 nM
B2: TPP-22215 (bispecific antibody, human IgG1, kappa)
light: B1 light
heavy: EVQLVQSGGGLVQPGGSLRLSCAASGYDFTHYGMNWVRQAPGKGLEWVGWINTYTGEPTYAADFKRRFTFSLDTSKSTAYLQMNSLRAEDTAVYYCAKYPYYYGTSHWYFDVWGQGTLVTVSSASTKGPSVFPLAPSSKSTSGGTAALGCLVKDYFPEPVTVSWNSGALTSGVHTFPAVLQSSGLYSLSSVVTVPSSSLGTQTYICNVNHKPSNTKVDKRV[in this place human IgG1 Fc with changes]GGGGSGGGGSDIQMTQSPSSLSASVGDRVTITCRTSENVYSNLAWYQQKPGKAPKLLIYAASNLQSGVPSRFSGSGSGTDYTFTISSLQPEDIATYYCQHFWGSPFTFGCGTKLEIKGGSEGKSSGSGSESKSTGGSQVQLVQSGAEVKKPGASVKVSCKASGYTFTNYDIIWVRQAPGQCLEWMGYINPYNDGTKYNEKFKGRVTMTRDTSTSTVYMELSSLRSEDTAVYYCARLLKYRRFRYYAIDYWGQGTTVTVSS

TrkB-phosphorylation efficacy (AlphaLISA counts) [1]: 4850 AlphaLISA counts | TrkB-phosphorylation efficacy relative to parental clone without CC bridge (%) [1]: 100% | TrkB-phosphorylation potency (EC50, nM) [1]: 5.49 nM
B3: TPP-22191 (bispecific antibody, human IgG1, kappa)
light: B1 light
heavy: EVQLVQSGGGLVQPGGSLRLSCAASGYDFTHYGMNWVRQAPGKGLEWVGWINTYTGEPTYAADFKRRFTFSLDTSKSTAYLQMNSLRAEDTAVYYCAKYPYYYGTSHWYFDVWGQGTLVTVSSASTKGPSVFPLAPSSKSTSGGTAALGCLVKDYFPEPVTVSWNSGALTSGVHTFPAVLQSSGLYSLSSVVTVPSSSLGTQTYICNVNHKPSNTKVDKRV[in this place human IgG1 Fc with changes]GGGGSGGGGSDIQMTQSPSSLSASVGDRVTITCRTSENVYSNLAWYQQKPGKAPKLLIYAASNLQSGVPSRFSGSGSGTDYTFTISSLQPEDIATYYCQHFWGSPFTFGQGTKLEIKGGSEGKSSGSGSESKSTGGSQVQLVQSGAEVKKPGASVKVSCKASGYTFTNYDIIWVRQAPGQGLEWMGYINPYNDGTKYNEKFKGRVTMTRDTSTSTVYMELSSLRSEDTAVYYCARLLKYRRFRYYAIDYWGQGTTVTVSS

TrkB-phosphorylation efficacy (AlphaLISA counts) [1]: 4220 AlphaLISA counts | TrkB-phosphorylation efficacy relative to parental clone without CC bridge (%) [1]: 100% | TrkB-phosphorylation potency (EC50, nM) [1]: 9.95 nM
B4: TPP-22190 (bispecific antibody, human IgG1, kappa)
light: B1 light
heavy: QVQLVESGGGLVQPGGSLRLSCAASGYDFTHYGMNWVRQAPGKGLEWVGWINTYTGEPTYAADFKRRFTFSLDTSKSTAYLQMNSLRAEDTAVYYCAKYPYYYGTSHWYFDVWGQGTLVTVSSASTKGPSVFPLAPSSKSTSGGTAALGCLVKDYFPEPVTVSWNSGALTSGVHTFPAVLQSSGLYSLSSVVTVPSSSLGTQTYICNVNHKPSNTKVDKRV[in this place human IgG1 Fc with changes]GGGGSGGGGSDIQMTQSPSSLSASVGDRVTITCRTSENVYSNLAWYQQKPGKAPKLLIYAASNLQSGVPSRFSGSGSGTDYTFTISSLQPEDIATYYCQHFWGSPFTFGQGTKLEIKGGSEGKSSGSGSESKSTGGSQVQLVQSGAEVKKPGASVKVSCKASGYTFTNYDIIWVRQAPGQGLEWMGYINPYNDGTKYNEKFKGRVTMTRDTSTSTVYMELSSLRSEDTAVYYCARLLKYRRFRYYAIDYWGQGTTVTVSS
